Experimental data as given in PubChem BioAssay AID686979 (National Center for Advancing Translational Sciences (NCATS), 2013).
“And” between values parts separate entries of the source, which are not always exact repeats. Identical values can stand only once. Among all 420,000 compounds or so, about 50,000 (12%) were called active. This list was built around the results that the source calls inconclusive (neither active nor inactive); the mix of calls is not that of the screen. The call rests on the fitted dose curve; in most records, active means well fitted inhibition curve with a large enough effect; inconclusive means small, poorly fitted or top-dose-only effect; inactive means flat fitted curve, though single readings scatter. Potencies beside an inconclusive call are fits to weak or partial responses and may not hold up.

Experiment: qHTS for Inhibitors of human tyrosyl-DNA phosphodiesterase 1 (TDP1): qHTS in cells in presence of CPT; further: nearly all actives have a fitted effect of over 55% in size
Details: chicken DT40 Tdp1-/-;hTDP1 cells + 20 nM CPT, ATP luminescence, 48 h; activity change, negative = growth inhibition: at 46.2 µM (top of the series) unless noted
Procedure, shortened: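 Chicken DT40 Tdp1-/- cells stably complemented with human TDP1 were seeded at 400 cells/well in medium containing 20 nM camptothecin, exposed to pin-transferred compounds, and grown at 37 °C for at least 48 hr. Viability was read as ATP luminescence.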
On the % scale 0 is the no-effect control and ±100 the full control effect; potency means the concentration at half of the fitted maximal effect; tags describe the fitted curve by direction and shape.

Row | Compound | Potency | activity change, negative = growth inhibition
1 | COc1ccc(CSc2nnc(C)n2N)cc1 | inactive | –
2 | CCCCCn1c(SCc2cccc(C)c2)nc2c1c(=O)[nH]c(=O)n2C | inconclusive: 29.1 µM [inhibitor, single point] | –
3 | CCOC(=O)N1CCc2c(sc(NCc3cccc(F)c3)c2C(=O)Nc2ccccc2OCC)C1 | inconclusive: 23.1 µM [inhibitor, single point] | –
4 | CCc1nnc(NS(=O)(=O)c2ccccc2)s1 | inactive | –
5 | c1ccc2c(C(c3c[nH]c4ccccc34)c3c[nH]c4ccccc34)c[nH]c2c1 | inconclusive: 35.5 µM [inhibitor, single point] | –
6 | CCOC(=O)c1cccc(NC(=O)CCc2c(C)nc3ncnn3c2C)c1 | inactive | –
7 | CC(C)(C)NC(=O)CSc1nnc(-c2ccccc2)c(-c2ccccc2)n1 | inactive | –
8 | CCCOc1c(Br)cc(C(=O)OCC(=O)NC(=O)c2cccn2C)cc1OC | inconclusive: 29.1 µM [inhibitor, single point] | –
9 | O=C(CSc1nnc(-c2ccccc2)c(-c2ccccc2)n1)NC1CCCCC1 | inconclusive: 18.4 µM [inhibitor, single point] | –
10 | NC(=O)c1nsc(C(=O)N(CC(=O)NC2CCCCC2)c2cccc(F)c2)c1N | inactive | –
11 | C#C[C@]1(O)CCC2C3CCC4=Cc5oncc5C[C@@]4(C)C3CC[C@@]21C (stereo not given in full) | inconclusive: 29.1 µM [inhibitor, single point] | –
12 | CCCCCCCCCCCCCCC[C@@H](O)[C@H](CO)NC(C)=O | – | inactive: 8.44% [at 4.12 µM]
13 | CCN(CC)c1ccc(/C=N/NC(=S)NCc2ccccc2)cc1 | inconclusive: 20.6 µM [inhibitor, single point] | –
14 | O=C(NC1CCCCC1)C(c1ccccc1)N(Cc1cccnc1)C(=O)c1csnn1 (stereo not given) | inactive | –
15 | CCCCNC(=O)c1onc(CSc2ccc(F)c(F)c2)c1C(=O)O | active: 20.6 µM | –
16 | Cc1c(OC(C)C(=O)NCCCN2CCOCC2)ccc2c1oc(=O)c1ccccc12 (stereo not given) | inconclusive: 29.1 µM [inhibitor, single point] | –
17 | O=C(/C=C/c1ccco1)NCC1(c2ccccc2)CCCC1 | active: 11.6 µM | –
18 | O=C(O)c1cn(-c2ccc(F)cc2)c2cc(N3CCNCC3)c(F)cc2c1=O | inconclusive: 23.7 µM [inhibitor, single point] and inconclusive: 23.1 µM [inhibitor, single point] | –
19 | Cn1c(=O)c2[nH]c(N=NN3CCCCC3)nc2n(C)c1=O | inconclusive: 18.4 µM [inhibitor, single point] | –
20 | COc1ccc(CCNC(=O)Nc2ccc([N+](=O)[O-])cc2)cc1OC | inconclusive: 9.2 µM [inhibitor, partial curve] | –
